Results published in PubChem BioAssay AID1645887 (National Center for Advancing Translational Sciences (NCATS), 2021).
Several values for one entry are separate records, joined by “and”; a condition that tells them apart may be missing. Equal entries are not always repeated. Out of some 16,000 compounds screened, about 40 (0.2%) were called active. About 1% were inconclusive and are not listed. Calls come from the whole dose curve; as a rule, active = well fitted activation curve with a large enough effect; inconclusive = small, poorly fitted or top-dose-only effect, or another doubt; inactive = no such curve, though single readings can be large or run the other way. Some of the results follow.

molecular target: Rap guanine nucleotide exchange factor 4 (Homo sapiens) (UniProt Q8WZA2); assay: Validation qHTS for agonist of cAMP-regulated guanine nucleotide exchange factor 4 (EPAC2); settings: EPAC2 Rap1B BODIPY-GDP exchange, fluorescence; activation: hits give high values;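 note: exchange makes BODIPY-GDP fluorescence drop when released from Rap1B; series mostly up to about 150 µM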
Chain of UniProt Q8WZA2 (Q8WZA2 whole entry, looked up): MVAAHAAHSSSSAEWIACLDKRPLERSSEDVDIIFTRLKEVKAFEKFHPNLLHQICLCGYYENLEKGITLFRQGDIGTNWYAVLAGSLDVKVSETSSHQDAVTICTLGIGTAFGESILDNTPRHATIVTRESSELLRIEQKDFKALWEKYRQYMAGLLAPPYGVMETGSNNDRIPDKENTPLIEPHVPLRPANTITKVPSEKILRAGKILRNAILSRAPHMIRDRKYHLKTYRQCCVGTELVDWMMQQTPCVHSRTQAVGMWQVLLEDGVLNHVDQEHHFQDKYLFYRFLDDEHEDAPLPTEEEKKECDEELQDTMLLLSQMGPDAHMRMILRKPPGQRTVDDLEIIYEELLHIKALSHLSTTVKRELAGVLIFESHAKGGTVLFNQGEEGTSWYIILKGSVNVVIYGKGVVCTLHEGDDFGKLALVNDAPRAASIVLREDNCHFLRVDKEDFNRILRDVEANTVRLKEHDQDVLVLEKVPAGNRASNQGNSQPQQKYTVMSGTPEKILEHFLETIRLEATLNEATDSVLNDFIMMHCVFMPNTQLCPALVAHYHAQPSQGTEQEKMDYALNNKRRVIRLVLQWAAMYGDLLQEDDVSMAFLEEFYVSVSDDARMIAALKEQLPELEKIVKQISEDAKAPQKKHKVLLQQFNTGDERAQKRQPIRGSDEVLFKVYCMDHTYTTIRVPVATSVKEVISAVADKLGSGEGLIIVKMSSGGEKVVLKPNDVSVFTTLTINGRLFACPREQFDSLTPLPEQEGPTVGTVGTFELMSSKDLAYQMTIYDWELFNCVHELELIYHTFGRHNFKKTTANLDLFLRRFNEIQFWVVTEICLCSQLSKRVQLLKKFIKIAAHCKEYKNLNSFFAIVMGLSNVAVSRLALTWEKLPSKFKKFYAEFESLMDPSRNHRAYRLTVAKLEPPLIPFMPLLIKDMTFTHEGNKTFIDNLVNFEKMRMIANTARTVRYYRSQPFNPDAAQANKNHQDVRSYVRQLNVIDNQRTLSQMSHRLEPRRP
In short: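 Fluorescent exchange assay: 100 nM EPAC2 with 250 nM RAP1B-BODIPY-GDP and 50 uM GDP; compound added, 5 min at room temperature, then read (ex 480/em 540 nm) every 5 min for 30 min. Normalized to 6.5 mM cAMP agonist control.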
% is set by controls: 0 for no effect and ±100 for the full control effect.

activation, inactive:
O=C1[C@H](Cc2ccccc2)NC/C=C\C[C@@H](c2ccc(Cl)cc2)N1Cc1ccccc1 -43%
COc1ccc(CC(N)C(=O)NC2C(O)[C@H](n3cnc4c(N(C)C)ncnc43)O[C@@H]2CO)cc1 (stereo partly drawn) 5.11%
O=C(N/N=C/c1ccc([N+](=O)[O-])o1)c1ccc(O)cc1 -7.97%
CN1CCN(C(c2ccccc2)c2ccc(Cl)cc2)CC1 (stereo not drawn) -1.75%
CCc1oc2ccccc2c1C(=O)c1cc(I)c(O)c(I)c1 -8.37%
COc1ccc(-c2nc3cnc(OC)nc3n(-c3ccccc3)c2=O)cc1 -0.906%
CC(C)=CCC/C(C)=C/CC/C(C)=C/CCC(=O)OC/C=C(\C)CCC=C(C)C -17%
Cc1ccc(C(C)C)cc2c(C)ccc1-2 -0.138% and -5.79%
COCCn1c(=O)c(-c2cc(F)cc(F)c2)nc2cnc(Oc3cccc(Cl)c3)nc21 -4.03%
NC(=O)c1ncn([C@@H]2O[C@H](CO)[C@@H](O)[C@H]2O)c1O 3.91% and -8.43%
CN(C)C(=O)c1ccc(-c2nccc(N(C)Cc3ccco3)n2)cc1 -10.8%
CC(C)C(NC(=O)c1ccoc1)c1nnc2n1CCN(C(=O)/C=C/c1ccc(F)cc1)CC2 (stereo not drawn) -19.1%
CCc1nc2cc(C(=O)N3CCCN(C=O)CC3)cc(NC(=O)c3ccccc3OC)c2n1C -4.58%
C[C@H](CCC(=O)O)[C@H]1CC[C@@H]2[C@H]3CC[C@H]4C[C@H](O)CC[C@]4(C)[C@@H]3CC[C@@]21C -9.27%
Cc1noc(C)c1C(=O)N1CCC2(CC1)CN(C(=O)Nc1cccc(F)c1)C2 -11.2%
COc1cccc(Nc2ncc3nc(-c4ccccc4)c(=O)n(Cc4cccs4)c3n2)c1 -10.4%
CC(C)(C)NCC(O)CSc1nc(-c2ccc(C(N)=O)s2)cs1 (stereo not drawn) -4.03%
CC[C@H](C)C(=O)O[C@H]1CCC=C2C=C[C@H](C)[C@H](CC[C@@H]3C[C@H](O)CC(=O)O3)[C@H]21 -37.3%
Cn1cnc2c(ncn2[C@@H]2O[C@H](CO)[C@@H](O)[C@H]2O)c1=N -4.72%
Cc1cccc(CNc2ccnc(-c3cccnc3)n2)c1 -12.5%
CCC(=O)N[C@@H]1CCc2cccc(OC)c2C1 -20.2%
C/C(=C\CO)CCC(C)CCCC(C)CCCC(C)C (stereo not drawn) -44%
O=C(c1ccco1)N1CCC[C@@]2(CCN(c3cccc(-c4ccccc4)c3)C2)C1 4.69%
